# Measurements taken from the supplement of paper PMC11417369.
# ± gives the standard deviation of the averaged measurements. The list shows a part of the results.
# Tested on: PfAP2-LT AP2 domain (GST-tagged)
# Assay: gcPBM binding intensity (ln(normalized median fluorescence intensity)); higher = stronger DNA binding
# Procedure, shortened: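 Binding intensity values are the highest Masliner-normalised natural-log median intensity among replicate spots of either probe orientation. The binding step lasted 1 h in 1× PBS with 1% milk, 0.2 mg/ml BSA, 0.5% salmon testes DNA and 0.03% Triton X-100, using GST-tagged P. falciparum DNA-binding domains expressed in E. coli on an Agilent 4 × 180k array of primer-extended double-stranded 36-bp intergenic genomic probes plus negative controls. Alexa488 anti-GST antibody and a 488 nm scan detected bound protein.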
row,Sequence,gcPBM binding intensity (ln)
1,ATATAGTTCGATATAGTTAGTATGAATTGAAAAATA [CACACA_negctrl_site1826],8.54 ± 0.46
2,TTTTTAAAATATTTAACACACAATTTTAATGCATAA [CACACA_site6036],8.53 ± 0.38
3,AAAAAAATAAAACACACACACAAAAAAATAAAAATA [CACACA_site465],9.56 ± 0.3
4,GTTGTGTAATTCGTAACACACATAAAATATATATAA [CACACA_site6059],9.13 ± 0.38
5,TTAATTATGGACAGGGTGCACATGAATAATAATACC,9.14 ± 0.54
6,TATATTATAATAAGACGTACAAGGATGTTAAAACTT [XGTACX_site5828],8.84 ± 0.38
7,ACCTAATTCAAATACAGTACATATACAATATATATA [XGTACX_site2779],8.76 ± 0.38
8,AAAAAATATTGAAGTACACACATTATAAACTTTTTT [CACACA_site5029],8.86 ± 0.49
9,AAAATTAAAAATTACTGTACGTATTAGAGAATAAAT [XGTACX_site2567],8.72 ± 0.36
10,TATATTGTATAAAAATGTACATGCAATAAATTTAGT [XGTACX_site5621],8.82 ± 0.38
11,AAAATATTAATTAATACATGCATATATATATATATA [TGCATGCA_site585],9.78 ± 0.29
12,TACATTAACGGATTATTTCTCAATACAACATCATTT [CACACA_negctrl_site981],8.62 ± 0.47
13,GTTTGTATGTCCAAATGTACATATGATTTTATGAAA [XGTACX_site6595],8.69 ± 0.31
14,ATAGTATACAGACACACACACACACCCATATATATA [CACACA_site1736],10.2 ± 0.29
15,AGGATATAAATATTCACACACACATGGAGATATATA [CACACA_site6317],9.54 ± 0.39
16,TTCTTAAATGTAAATGTATATGTATTAAAAAGAGAA [TGCATGCA_negctrl_site597],8.43 ± 0.35
17,TACTGTGTTTTGGTTGTACACACGCTACATTATATA [CACACA_site8863],9.32 ± 0.45
18,TTATAATATTAATGTGCACACAATTAAAATATTATA [CACACA_site2046],9.03 ± 0.38
19,ATGTTTTATATTTTTTTTTTGTTTGCTTGTTTCCTC [CACACA_negctrl_site870],8.89 ± 0.57
20,AAGGGAAATATTGAAACACACACGAACCCACGTATT [CACACA_site252],9.38 ± 0.25
21,ATACTAAATGAACACACACACATATATATATATAAT [CACACA_site4232],9.87 ± 0.23
22,TATAACTTTTTTATTACACACCTATGTAATATTATA [CACACA_site944],8.81 ± 0.42

row,Sequence,gcPBM binding intensity (ln)
1,AAATAAATATATAATACACACAAAAATATAAAATGG [CACACA_site5943],9.24 ± 0.34
2,AACAGACATAGAAACACACATACATACATACATACA [CACACA_site2479],9.53 ± 0.65
3,TTTTTTATATTAAATGAAGAATATACAAAATTTTAA [CACACA_negctrl_site558],7.96 ± 0.36
4,TTTTGTTAGTTTTTTTTCTTATATTACATTTTCACG [CACACA_negctrl_site1466],8.72 ± 0.55
5,ATGTAGTCTCAAGACTGTACAAACAAGTAAATAAAA [XGTACX_site4120],8.99 ± 0.43
6,AAATTATAAATAATTTGTACATAAAAATTGGTAAAG [XGTACX_site5197],8.72 ± 0.36
7,ACATGTGAAGGGAACATAAATTGGGGTTTTATATTG [XGTACX_negctrl_site508],9.02 ± 0.19
8,GAATATAAAAAAGAATGTACTTGAACAGTCCTAAAA [XGTACX_site745],8.6 ± 0.48
9,TCCATCCACATATATGTACACACATATATATATATA [CACACA_site8970],9.57 ± 0.18
10,GTTAAGGGTATATATACACACATATGTAATACATGA [CACACA_site5650],9.2 ± 0.39
11,ACAATTTTATTTAAAGTGCATGTAAAATTAAAACTT,8.51 ± 0.4
12,AATAAATATCAATACACACACACAAAAGTGAATAAA [CACACA_site3763],9.68 ± 0.29
13,TATACATTTATGTACACACACATATATGTATATTTA [CACACA_site2966],9.2 ± 0.39
14,AAAGGAAGAAAAAATAGTACATATATATATATATAA [XGTACX_site766],9.26 ± 0.27
15,ATTTTTTACGTATAGTACAAAGTTTTATGATACATA [CACACA_negctrl_site965],8.73 ± 0.49
16,ATGAAATATATTATATGTACATATTTATTTTTTATA [XGTACX_site7319],8.63 ± 0.49
17,CATTATAAAAAATAAAAAAGAAATAATTGTATATGC [CACACA_negctrl_site478],8.63 ± 0.42
18,AAATGCTAAAAATAGAGTACAGATAACGAAAAGTGT [XGTACX_site8830],9.12 ± 0.51
19,AAATAGTAAATAAGGGGTACAAAAAAAAAAAAAAAA [XGTACX_site8362],8.48 ± 0.7
20,AAAAAATTGACTAATGCACACAATTACATATATATA [CACACA_site1689],8.97 ± 0.43
21,CAATTTTTCTATCATTGTACTTTTATATAATAGTGT [XGTACX_site1810],8.78 ± 0.39
22,ATTATAAATACACGCACACACACTTATATATATATA [CACACA_site5776],9.76 ± 0.33

row,Sequence,gcPBM binding intensity (ln)
1,AATTGTTCTATGATTTGTACACACTTTTTTTTAAAA [XGTACX_site5984],8.96 ± 0.45
2,TTTTTTGCTTTCAACACACATACAATCTATATAATC [CACACA_site4125],8.8 ± 0.42
3,TAAACCTGTAGAGATGCATGCATTGTTAACATGGTG [TGCATGCA_site515],9.03 ± 0.39
4,AAGGAGAAATAAATATTAAAAAATTTATATATATAT [CACACA_negctrl_site1801],8.7 ± 0.42
5,TAATATTGCAAATATAAAAAAAAATAAACCATATAT [XGTACX_negctrl_site458],8.81 ± 0.47
6,TTCTTTTTTAACAACAAAAAAAAAAAAAAAAAAAAA [TGCATGCA_negctrl_site87],8.12 ± 0.19
7,CCATTTACCCTTGCCATGCACACTTTTTTATAGAAA [CACACA_site3505],9.07 ± 0.55
8,AAAATAATGTTTATATGTACATATATATATATATAT [XGTACX_site8815],9.32 ± 0.099
9,ATATTTTTTTATAAATGTACAAAAATAATATTGCAT [XGTACX_site7399],8.47 ± 0.3
10,TTATAAAAATAATATCGTACAAATGATAAAGATTAA [XGTACX_site4893],8.69 ± 0.44
11,TGAATTCGTCAAAAGCGTACATATAATATCTTCTTG [XGTACX_site8842],8.81 ± 0.4
12,ACATATATATATATATATAATATTTTATATTTATTA [CACACA_negctrl_site713],8.72 ± 0.36
13,TATATAGTAATATATACACACACTTGTCTTGTAAAA [CACACA_site990],9.17 ± 0.33
14,TTTTTATTTAATATTTTAAAAAAAAATCATTTTTAA [XGTACX_negctrl_site207],7.8 ± 0.47
15,AAGATTAATATTTTATGTACATATGTAATATATATG [XGTACX_site4367],8.75 ± 0.37
16,AAGAATACACCACGCACACACACTTGAGAAAAAATA [CACACA_site3828],9.96 ± 0.47
17,TTCTTTGTGGTATAGATACACACTATATTAATATGA [CACACA_site2150],8.95 ± 0.51
18,ATATATACCTAAGACACACACATATAGATTTATATA [CACACA_site6498],9.29 ± 0.34
19,ATTTTAGATATCCTGCGTACACAAATTGCTTTATTT [XGTACX_site7149],9.11 ± 0.45
20,AAAATTTCAATAAATACACACATATATATATATATT [CACACA_site1685],9.04 ± 0.33
21,AAATAATATATGAATGCACACAGTAAAAATTAAAGA [CACACA_site2252],9.21 ± 0.43
22,ATAAATTTATATACTTGTACATATATATATTACATA [XGTACX_site6697],8.73 ± 0.4

row,Sequence,gcPBM binding intensity (ln)
1,TATATATACATATACACACACACACCCATATATATA [CACACA_site2246],10 ± 0.11
2,TTTGAAATAAAAAGGTGTACACTCGATTAATAAATA [XGTACX_site6943],8.7 ± 0.44
3,TTTTAGCACTTATTATAAGATATCAAAAAGATGGGT [XGTACX_negctrl_site325],8.52 ± 0.4
4,ACTATCATTTTTTTAACACACAAAAAAAATAAAATA [CACACA_site3519],8.64 ± 0.37
5,TGTATAAGTGCCGTTATACACACGTTATATAAATAT [CACACA_site438],8.98 ± 0.33
6,TATCTTATTTTAAAAGTGCATGGAAAGGGGTTTTTG,8.65 ± 0.23
7,TTCATTATTATTAACATACACACGTGTTATATACAC [CACACA_site4112],9.15 ± 0.4
8,AAAAAATACAAGAAATGTACTCAAGCATATATTAAT [XGTACX_site3325],9.01 ± 0.41
9,TTTTTACTATAATTAAAATTAACAAAAGAAAATGAT [GTGCAC_negctrl_site52],8.18 ± 0.45
10,TTCATTTTTTAAGCATCACACACGAAAGAACAAAGT [CACACA_site1122],8.98 ± 0.33
11,ATCAAAAATATAAAAAATATAAACAATTTATTATCA [CACACA_negctrl_site768],8.39 ± 0.52
12,ATATATATAATATGTAGTACTTTCCTCTCAAATCAT [XGTACX_site7766],8.86 ± 0.49
13,TTTACATCCAAAAACTGTACACTTATTTTATAATTC [XGTACX_site5332],8.74 ± 0.43
14,GAATCATATTTAAACACACATACATATATATATATA [CACACA_site3352],9.59 ± 0.014
15,AATAAGTAACAAAATACACACATATATATAATTATA [CACACA_site1837],9.21 ± 0.4
16,TCATAAATTAATAATACATGCATAATATTAAAATGT [TGCATGCA_site5],8.78 ± 0.42
17,AAAAATATATAAGAGAGTACATAAAATAAATTAATT [XGTACX_site1534],8.76 ± 0.42
18,TTTAATAATATAATGTGTACTTAAAAATTTATATAT [XGTACX_site5821],8.29 ± 0.4
19,TCATTTCAATACACAAGTACGTATATGGTTATATTG [XGTACX_site6021],8.82 ± 0.4
20,AATATAAAATAATGCACACATAAACAAAAAATCAAA [CACACA_site1371],9.12 ± 0.4
21,CGAAGGTTTGGCCATGCATGTTATAAGAATATATGT [TGCATGCA_site441],8.75 ± 0.34
22,ATTCTATATATGTGCACACAAAAGATATATATATAT [CACACA_site2124],9.72 ± 0.28
